Hit rate of the full screen: of about 150,000 compounds, about 540 (0.36%) showed an effect of 50% or more. The list shows a part of the results.
tested on: Plasmodium falciparum; assay: Primary screen in NF54 nanoGlo assay, in single point, at 2uM, 72h; a lower Z score goes with more inhibition; format: functional, Erythrocyte; settings: timepoint 72 hour

Row | SMILES | % Inhibition | Z score
1 | COCCn1cc(CNC(=O)CC2(C)CCCC2)c(=O)[nH]c1=O | -9% | 1.32
2 | COc1ccc(Br)cc1Cn1nnc(C(=O)O)c1-c1cccnc1 | -8% | 0.88
3 | CCOc1ccc(-c2cc3cc(OC)c(OC)cc3c[n+]2[C@H](C(=O)O)C(C)C)cc1 | 15% | -2.39
4 | CCNC(=O)CCCc1nc2cccnc2n1CCOC | -9% | 1.09
5 | COc1cc(C)cc(NC(=O)N[C@@H]2COC[C@@H]2Oc2cn[nH]c2)c1C | -14% | 1.66
6 | CO[C@@]1(CNc2nc3cc(C)ccc3o2)CCS(=O)(=O)C1 | 10% | -1.69
7 | CC1(C(=O)Nc2cccc(-c3n[nH]c(=O)[nH]3)c2)CCCCCC1 | 0% | 0.02
8 | CC(=O)Nc1nc(C(=O)N2CCc3c(F)ccc(F)c32)cs1 | 10% | -1.93
9 | CCN(CC(=O)NC)C(=O)CCN(Cc1ccccc1)C(C)=O | 3% | -0.43
10 | O=C(NCCCC1CCCC1)N1CCN(c2nccs2)CC1 | -3% | 0.42
11 | O=C(NCc1noc2c1CCCC2)[C@H]1C[C@@H]1C1CC1 | -4% | 0.61
12 | CN1CCN(c2cc(N3CCN(C(=O)Cc4ccc(Cl)cc4)CC3)ncn2)CC1 | 4% | -0.61
13 | Clc1cccnc1OC[C@H]1CCCOC1 | 2% | -0.28
14 | O=C(c1cccs1)N(CCS(=O)(=O)N1CCNCC1)C1CCCC1 | 10% | -1.14
15 | N#Cc1ccc(NCc2nccc(N)n2)nc1 | 31% | -1.23
16 | Cc1nc(C(=O)N2CCc3onc(-c4cccc5ccccc45)c3C2)cs1 | -15% | 1.69
17 | CCCN(Cc1cc(NC(=O)c2cccs2)ccc1N(C)C)C(=O)Cc1cccs1 | -6% | 0.89
18 | COc1ccc(NC(=O)CN2CCC[C@H]2c2nnc(C)o2)cc1OC | -3% | 0.4
19 | NC(=O)[C@@H]1C[C@@H](F)CN1CC(=O)Nc1ccc(Br)cn1 | 2% | -0.22
20 | Cc1ccc(NC(=O)CC(C2CC2)C2CC2)nc1 | 5% | -0.69
21 | CC(C)N(CCOCCO)c1ccc(C#N)nn1 | -3% | 0.5
22 | Clc1cccc(OC2CN([C@H]3CCN(c4ccccc4)C3)C2)c1 | -9% | 1.21

Row | SMILES | % Inhibition | Z score
23 | O=C(NCC1(c2c(F)cccc2F)CCCC1)[C@H]1CCS(=O)(=O)C1 | -8% | 0.85
24 | Cc1cccc(N2CCN(C(=O)c3ccc(C)c(NC(=O)c4nsc5ccccc45)c3)C[C@@H]2C)c1 | -4% | 0.79
25 | Cn1c([C@H]2CCN(Cc3ccc(Cl)cc3)C2)nc2ccccc21 | 33% | -3.7
26 | Cn1ncc2c(=O)[nH]c(CN3CCN(C(=O)CC(C)(C)C)CC3)nc21 | -8% | 1.53
27 | Cn1nc(C(=O)N2CCC(Cc3ccccn3)CC2)cc1OC(F)F | 7% | -1.03
28 | CCc1c(C(=O)N2C[C@@H](CN3CCCCC3)[C@@H](CO)C2)csc1C | -2% | 0.32
29 | O=C(O)c1csc(CN2C3CCC2CC(CC(F)F)C3)n1 (configuration not stated) | 1% | -0.21
30 | O=C(Nc1ccn(CC(F)(F)F)n1)N1CCC[C@@H]1CN1CCCC1 | -4% | 0.45
31 | COCCN1CCC(CN(C[C@H]2CCCO2)C(=O)Cc2c(F)ccc(F)c2F)CC1 | -4% | 0.53
32 | O=C(NCCc1c[nH]c2ccccc12)c1ccoc1 | -2% | 0.37
33 | O=C(Nc1cnc(-n2ccnc2)nc1)c1ccncc1 | -17% | 3.14
34 | COc1ccc(CN2CC(N3CCNC3=O)C2)c(OC(F)F)c1 | -9% | 1.31
35 | Nc1c(Oc2ccccc2)ncnc1-c1ccccc1 | -2% | 0.34
36 | Cc1cc(=O)c(C(=O)NCC2CCCCC2OCC(F)(F)F)c[nH]1 (configuration not stated) | -12% | 1
37 | O=C(c1ccoc1C1CC1)N1CCOc2cc(F)c(F)cc21 | -15% | 1.88
38 | O=C(NC1CCCCC1Oc1ccccc1)N1CCC(CCO)C1 (configuration not stated) | -3% | 0.35
39 | O=C(NC1CCN(C(=O)c2cc(-c3ccccc3)n[nH]2)CC1)c1ccc2ccccc2c1 | -5% | 0.69
40 | COc1ccc(-c2nn(-c3ccccc3C)cc2CN(C)Cc2nccn2C)cc1F | -8% | 1.05
41 | CC(C)(C)c1ccc([C@@]2(C)NC(=O)N(CN(CC#N)C3CC3)C2=O)cc1 | -31% | 3.64
42 | CCOc1ccccc1-c1nccn1[C@H]1CC(=O)N(CCOC)C1 | -11% | 1.49
43 | Cc1ccc(S(=O)(=O)N2C[C@@H](C(=O)NCc3ccccc3C)Oc3ccc(C)cc32)cc1 | -13% | 1.71
44 | O=S1(=O)CC(c2nc(-c3ccsc3)no2)C(C(F)(F)F)C1 (configuration not stated) | -4% | 0.71

Row | SMILES | % Inhibition | Z score
45 | O=S1(=O)CC[C@H](c2noc(C3CCCCCC3)n2)C1 | 22% | -2.5
46 | NC(=NCc1cc2cc(F)ccc2s1)N1CCOCC1 | -5% | 0.49
47 | C[C@@H](CCCO)NS(=O)(=O)c1cc(F)ccc1Br | -16% | 1.83
48 | Cc1ccnc(N2CCN(S(=O)(=O)Cc3ccon3)CC2)c1 | 33% | -0.62
49 | COc1ccc(-c2cccc(C(=O)N3CCN[C@@H](C)C3)c2)c(OC)c1 | -14% | 2.1
50 | O=S1(=O)CCC(CN[C@H]2CCCc3sccc32)CC1 | -14% | 1.84
51 | CCOc1cccc2c1OCC(C(=O)N1CCC(CC(N)=O)CC1)=C2 | 4% | -0.47
52 | CCCN(CC(=O)N1CCn2cccc2[C@H]1c1ccc(C(C)(C)C)cc1)C(=O)C1CCCC1 | -1% | 0.09
53 | N#Cc1ccc(-c2nnc(Cn3ccnc3)o2)cc1 | -7% | 0.92
54 | N#Cc1ccc(NC(=O)c2ccc(-c3noc(C4CCCC4)n3)cc2)cc1 | -4% | 0.75
55 | Cc1ccc(-c2nc3n(CC(=O)N4CCOCC4)c4c(c(=O)n3n2)CCC4)cc1 | 6% | -0.74
56 | CCOC(=O)c1ccc(NS(=O)(=O)C2(COC)CC2)c(O)c1 | -1% | 0.07
57 | Cc1ccc2ncccc2c1S(=O)(=O)N1CC(N2CCOCC2)C1 | -10% | 1.93
58 | OCCOC1(CNc2c(F)cncc2Cl)CCOCC1 | -13% | 1.52
59 | Cn1nccc1[C@@H](O)CNC(=O)Nc1ncc(C2CCCCC2)s1 | 1% | -0.18
60 | CN(Cc1cccs1)C(=O)CC1CCCC1 | -3% | 0.53
61 | N#CC1CCC(N2CCCC(c3n[nH]c(-c4ccccc4)n3)C2)C1 (configuration not stated) | -22% | 3.42
62 | Cc1oncc1C(=O)N1CCC[C@H](n2cnc3ccccc3c2=O)C1 | -9% | 1.57
63 | CC(C)c1coc(NC(=O)c2cccn(CC(F)(F)F)c2=O)n1 | 4% | -0.52
64 | CCc1ccc(-c2nc3sc(-c4ccc(CC)cc4)nc3s2)cc1 | -18% | 1.98
65 | O=C(CCC1CCCC1)N(CCN1CCCCC1)C1CCOCC1 | -8% | 1.2
66 | CC[C@H](C)N(Cc1cccc(OS(=O)(=O)c2cccc(C(F)(F)F)c2)c1)C(=O)Nc1ccccc1OC | -1% | 0.23

Row | SMILES | % Inhibition | Z score
67 | Cc1nn(Cc2c(F)cccc2Cl)c(C)c1NC(=O)C1CCN(S(C)(=O)=O)CC1 | 3% | -0.37
68 | COc1ccc(OC[C@@H](O)CN2CCC(O)CC2)c(CNCc2cc(F)ccc2C)c1 | -1% | 0.27
69 | Cc1cnc(CNC(=O)Nc2cccc3c4c(oc23)CCCC4)cn1 | 5% | -0.7
70 | CC[C@@H](C(=O)Nc1ccc(OC)cc1)N1CCC(c2n[nH]cc2C)CC1 | -1% | 0.2
71 | CC(C)c1nc(C2CCCN(C(=O)C3CCCCN3C)C2)no1 (configuration not stated) | -28% | 5.23
72 | CCc1cnccc1[C@H](C)NC(=O)N1CC2(CCOCC2)C1 | 3% | -0.56
73 | CC(C)c1nc(CN2CCC[C@H]2C(=O)O)cs1 | -17% | 2.27
74 | COc1cc(C)cnc1C(=O)N1CCC[C@](C)(F)C1 | -12% | 1.49
75 | Cc1n[nH]c(C2CN(CC3CCCO3)CCO2)n1 (configuration not stated) | -7% | 1.14
76 | Cc1nn(C)cc1CN1CCN(C(=O)OC(C)(C)C)[C@H](C)C1 | 7% | -0.93
77 | CCCN(CCc1cccc(F)c1)C(=O)C1(N)CC2(CCC2)C1 | -5% | 0.99
78 | CC(C)c1nnsc1CN1CC[C@@]2(CCCN(CC3CCC3)C2=O)C1 | -4% | 0.59
79 | Cc1ccc(-c2nsc3c(=O)n(CC(=O)NCCCc4ccccc4)cnc23)cc1 | -4% | 0.61
80 | C[C@H](CC1CCCCC1)NC(=O)c1cc2c(cc1Br)NC(=O)CO2 | -14% | 1.58
81 | Cc1cnc(N2CCCC(C)C2CN)nc1 (configuration not stated) | -14% | 1.15
82 | CCn1nc(C)c2c(-c3ccccc3)cc(O[C@@H](C)C(=O)Nc3cccc(OC)c3)nc21 | -17% | 1.87
83 | O=C1OC[C@@H]2CCN(C3CCCC3)Cc3ccccc3N12 | -5% | 0.82
84 | O[C@@H](CC1CCCC1)CN1CCn2ncnc2C1 | -6% | 0.83
85 | Cc1ccsc1CNCc1cccc(-c2ccccc2)c1 | -1% | 0.17
86 | COCCNC(=O)c1ccc(-n2nc(-c3nnc(C)o3)c(C)c2-c2ccc(OC)cc2)cc1 | 33% | -8.37

From ChEMBL document CHEMBL4888484, “Replenishing the malaria drug discovery pipeline: Screening and hit evaluation of the MMV Hit Generation Library 1 (HGL1) against asexual blood stage Plasmodium falciparum ,using a nano luciferase reporter read-out” (2022)
